Measurements reported in the RNAGym collection of RNA variant scans (doi:10.1101/gad.245936.114).
Variants at the background level are over-represented here.

B1: tRNA (parent)
chain: CUCUCGGUAGCCAAGUUGGUUUAAGGCGCAAGACUUUAAUUUAUCACUACGAAAUCUUGAGAUCGGGCGUUCGACUCGCCCCCGGGAGAUUUUUUCCUCGAGCAA

Variants of: B1
Assay: nonsense suppression (GFP-seq) (ratio to wild type); higher = more function; SUP4oc tRNA, yeast GFP reporter sort-seq
Procedure, shortened: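 To measure nonsense suppression, tRNA variants from a library carrying ~3% random mutations were integrated into the yeast genome alongside RFP and a GFP ochre reporter under galactose control. Growth took place in raffinose/galactose medium supplemented with 80 mg/L adenine, followed by sorting into GFP/RFP bins and Illumina sequencing of each bin (phred ≥30). For each variant with ≥100 reads and ≥30 cells, the bin median GFP/RFP values were weighted by its estimated cell share per bin and referenced to the unmutated parent tRNA.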

Variant	nonsense suppression
CUCUCAGUAGCCAAGCUGGUUUAAGGCGCAAGACUUUAAUUUAUCACUACGAAAUCUUGAGAUCGGGCGUUCGACUCGCCCCCGGGAGAUUUUUUCCUCGAGCAA [G6A U16C]	≤ 0.026
CUCUCAGUAGCCAAGUUGGUUUAAGGCGCAAGACUUUAAUUUAUCACUACGAAAUCUUGAGAUCGGGCGUUGGACUCGCCCCCGGGAGAUUUUUUCCUCGAGCAA [G6A C72G]	≤ 0.026
CUCUCAGUAGCCAAGUUGGUUUAAGGCGCAAGACUUUAAUUUAUCACUACGAAAUCUUAAGAUCGGGCGUUCGACUCGCCCCCGGGAGAUUUUUUCCUCGAGCAA [G6A G59A]	≤ 0.026
CUCUCAGUAGCCAAGUUUGUGUAAGGCGCAAGACUUUAAUUUAUCACUACGAAAUCUUGAGAUCGGGCGUUUGACUCUCCCCCGAGAGAUUUUUUCCUCGAGCAA [G6A G18U U21G C72U G78U G85A]	≤ 0.026
CUCUCAGUAGCCAAGUUGGUAUAAGGCGCAAGACUUUAAUUUAUCACUACGAAAUCUUGAGAUCGGGCGUUCGACUCGCCCCCGGGAGAUUUUUUCCUCGAGCAA [G6A U21A]	≤ 0.026
CUCUCAGUAGCCAAGUUGGUCUAAGGCGCAAGACUUUAAUUUAUCACUACGAAAUCUUGAGAUCGGGCGUUCGACUCGCCCCCGGGAGAUUUUUUCCUCGAGCAA [G6A U21C]	≤ 0.026
CUCUCCGUGGCCAAGUUGGUUUAACGAGCGAGAGUUUAAUUUAUCACUACGAAAUCUUGAGAUCGGGCGUUCGACUCGCCCCCGGGUGAUUUUUUCCUCGAGCAA [G6C A9G G25C C27A A30G C34G A87U]	≤ 0.026
CUCUCAGUAGCCAAGUUGGUCUAAGGCGCGAGACUUUAAUUUAUCACUACGAAAUCUUGAGAUCGGCCGUACGACUCACCCCCGGGAGAUUUUUUCCUCGAGCAA [G6A U21C A30G G67C U71A G78A]	≤ 0.026
CUCUCAGUAGCCAACUUGGUUUAAGGCGCAAGACUUUAAUUUAUCACUACGAAAUCUUGAGAUCGGGCGUUCGACUCGCCCCCGGGAGUUUUUUUCCUCGAGCAA [G6A G15C A89U]	≤ 0.026
CUCUCAGUAUCCAAGUUGGAUUACGGCGCAAGACUUUAAUUUAUCACUACGAAAUCUUGAGAUCGGGCGUUCGACUCGCCCCCGGGAGAUUUUUUCCUCGAGCAA [G6A G10U U20A A24C]	≤ 0.026
CUCUCAGUAGCCAAGUUGGUUCAAGGCGCAAGACUUUAAUUUAUCACUACGAAAUCUUGAGAUCGGGCGUUCGACUCGCCCCCGGGAGAUUUUUUCCUCGAGCAA [G6A U22C]	≤ 0.026
CUCUCAGUAGCCAAGUUGGUUUAAGGCGCAAGACUUUAAUUUAUCACUACGAAAUCUUGAGAUCGGGCGUUCGACUCACCCCCGGGAGAUUUUUUCCUCGAGCAA [G6A G78A]	0.037
CUCUCAGUAGCCAAGUUGCUUUAAGGCGCAAGACUUUAAUUUAUCACUACGAAAUCUUGAGAUCGGGCGUUCGACUCGCCCCCGGGAGAUUUUUUCCUCGAGCAA [G6A G19C]	≤ 0.026
CUCUCAGUAGCCAAGUUGAUUUGAGGCGCAAGACUUUAAUUUAUCACUACGAAAUCUUGCGAUCGGGCGUUCAACUCGCCCCCCGGAGAUUUUUUCCUCGAGCAA [G6A G19A A23G A60C G73A G84C]	≤ 0.026
CUCUCAGUAGCCAAGUUGGUGUAAGGCGCAAGACUUUAAUUUAUCACUACGAAAUCUUGAGAUAAGCCGUUCGACUCGCCCCCGGGAGAUUUUUUCCUCGAGCAA [G6A U21G C64A G65A G67C]	≤ 0.026
CUCUCAGUAGCCAACUUGGUUUACGGCGCAGGACUUUAAUUUAUCACUACGAAAUCUUGAGAUUGGGCGUUCGACUCGCCCCCGGGAGAUUUUUUCCUCGAGCAA [G6A G15C A24C A31G C64U]	≤ 0.026
CUCUCAGUAGCCAAGUUGGUUUAAGGCGCAAGACAUUAAUUUAUCACUACGAAAUCUUGAGAUCGGGCGUUCGACUCGCCCCCGGGAGAUUUUUUCCUCGAGCAA [G6A U35A]	≤ 0.026
CUCUCCGUAGCCCAGUUGGUUGAGGGCGCAAGACUUUAAUUUAUCACUACGAAAUCUUUAGAUCGGGCCUUCGACUCGCCCCCGGGAGAUUUUUUCCUCGAGCAA [G6C A13C U22G A24G G59U G69C]	≤ 0.026
CUCUCAGUAGCCAAGUUGGUUUAACGCGCAAGACUUUAAUUUAUCACUACGAAAUCUUGAGAUCGGGCGUUCGACUCGCCCCCGGGGAAUUUUUUCCUCGAGCAA [G6A G25C A87G G88A]	≤ 0.026
CUCUCAGUAGCCAAGUUGGUUUAAGGCGAAAGACUUUAAUUUAUCACUACGAAAUCUUGAGAUCGGGCGUACGACUCGCCCCCGGGAGAUUUUUUCCUCGAGCAA [G6A C29A U71A]	≤ 0.026
CUCUCAGUAGCCAAGUUGGUUUAAGGCGCAAGACUUUAAUUUAUCACUACGAAAUCUUGACAUCGGGCGUUCGACUCGCCCCCGGGAGAUUUUUUCCUCGAGCAA [G6A G61C]	≤ 0.026
CUCUCAGUAGCCAAGUUGGUUUAAGGCGCAAGACUUUAAUUUAUCACUACGAAAACUUGAGAUCGGGCGUUCGACUCGCCCCCGGGAGAUUUUUUCCUCGAGCAA [G6A U55A]	≤ 0.026
CUCUCAGUAGCCAAGUUCGUUUAAGGCGCAAGACUUUAAUUUAUCACUACGAAAUCUUGAGAUCGGGCGUUCGACUCGCCCCCGGGAGAUUUUUUCCUCGAGCAA [G6A G18C]	≤ 0.026
CUCUCAGUAGCCAAGUUGGUUCAAGGCGCAAGACUUUAAUUUAUCACUACGAAAUCCUGAGAUCGGACGCUCGACUCGCCCCCGGGAGAUUUUUUCCUCGAGCAA [G6A U22C U57C G67A U70C]	≤ 0.026
CUCUCAGUAGCCAAGUUGGUUUAAGGCGCAAAACUUUAAUUUAUCACUACGAAAUCUUGAGAUCGAGCGUUCGACUCGCCCCCGGGAGAUUUUUUCCUCGAGCAA [G6A G32A G66A]	≤ 0.026
CUCUCAGUAGCCAAGUUGGUUUAAGUCGCAAGACUUUAAUUUAUCACUACGAAGUCUUGAGAUCGGGCGUUCGACUCGCCCCCGGGAGAUUUUUUCCUCGAGCAA [G6A G26U A54G]	≤ 0.026
CUCUCAGUAGCCAAGUUGGUUUAAGGCGUACGACUUUAAUUUAUCACUACGAAAUCUUGAGAUCGGGCGAUCGACUCGCCGCCGGGGGAUUUUUUCCUCGAGCAA [G6A C29U A31C U70A C81G A87G]	≤ 0.026
